Viability of KB3-1 and Nalm-6 cells after 48 h of drug alone (CellTiter-Glo), 11 doses over about 4.5 log units. % of DMSO wells, lower = more cell loss; AC50 from the fitted curve, lower = more potent. No active / inactive call. Nalm-6 was screened in two runs. AC50 is listed only for well-fitted inhibitory curves. KB3-1 is a HeLa-derived carcinoma line, Nalm-6 a B-cell precursor leukaemia line.
How the values were obtained:
KB3-1 [1] = assay: log AC50 of viability decrease (48 h) (log10 M); higher = less potent
Procedure: (§1)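 Eleven-dose screen of the NCATS MIPE 3 library on cells without co-treatment; CellTiter-Glo after 48 h. AC50 from the curve fit; only inhibitory curves of the better fit classes are listed.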

Nalm-6 [2] = assay: as above
Procedure: as §1

KB3-1 [3] = assay: viability (% of DMSO control); higher = more viable cells
Procedure: (§2)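 Eleven-dose screen of the NCATS MIPE 3 library on cells without co-treatment; CellTiter-Glo after 48 h, as % of DMSO wells.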

Nalm-6 [4] = assay: as above
Procedure: as §2

| SMILES | log AC50 of viability decrease (KB3-1 [1]) | log AC50 of viability decrease (Nalm-6 [2]; run: 1) | log AC50 of viability decrease (Nalm-6 [2]; run: 2) | viability (KB3-1 [3]; 0.00078 µM) [%] | viability (KB3-1 [3]; 0.00234 µM) [%] | viability (KB3-1 [3]; 0.00702 µM) [%] | viability (KB3-1 [3]; 0.0211 µM) [%] | viability (KB3-1 [3]; 0.0632 µM) [%] | viability (KB3-1 [3]; 0.19 µM) [%] | viability (KB3-1 [3]; 0.569 µM) [%] | viability (KB3-1 [3]; 1.71 µM) [%] | viability (KB3-1 [3]; 5.12 µM) [%] | viability (KB3-1 [3]; 15.4 µM) [%] | viability (KB3-1 [3]; 46.1 µM) [%] | viability (Nalm-6 [4]; run: 1, 0.00078 µM) [%] | viability (Nalm-6 [4]; run: 1, 0.00234 µM) [%] | viability (Nalm-6 [4]; run: 1, 0.00702 µM) [%] | viability (Nalm-6 [4]; run: 1, 0.0211 µM) [%] | viability (Nalm-6 [4]; run: 1, 0.0632 µM) [%] | viability (Nalm-6 [4]; run: 1, 0.19 µM) [%] | viability (Nalm-6 [4]; run: 1, 0.569 µM) [%] | viability (Nalm-6 [4]; run: 1, 1.71 µM) [%] | viability (Nalm-6 [4]; run: 1, 5.12 µM) [%] | viability (Nalm-6 [4]; run: 1, 15.4 µM) [%] | viability (Nalm-6 [4]; run: 1, 46.1 µM) [%] | viability (Nalm-6 [4]; run: 2, 0.00078 µM) [%] | viability (Nalm-6 [4]; run: 2, 0.00234 µM) [%] | viability (Nalm-6 [4]; run: 2, 0.00702 µM) [%] | viability (Nalm-6 [4]; run: 2, 0.0211 µM) [%] | viability (Nalm-6 [4]; run: 2, 0.0632 µM) [%] | viability (Nalm-6 [4]; run: 2, 0.19 µM) [%] | viability (Nalm-6 [4]; run: 2, 0.569 µM) [%] | viability (Nalm-6 [4]; run: 2, 1.71 µM) [%] | viability (Nalm-6 [4]; run: 2, 5.12 µM) [%] | viability (Nalm-6 [4]; run: 2, 15.4 µM) [%] | viability (Nalm-6 [4]; run: 2, 46.1 µM) [%] |
| --- | --- | --- | --- | --- | --- | --- | --- | --- | --- | --- | --- | --- | --- | --- | --- | --- | --- | --- | --- | --- | --- | --- | --- | --- | --- | --- | --- | --- | --- | --- | --- | --- | --- | --- | --- | --- |
| C=CCO/N=C(/C[C@H]1O[C@@H]2O[C@]3(C)CC[C@H]4[C@H](C)CC[C@@H]([C@H]1C)[C@@]24OO3)[C@H]1O[C@@H]2O[C@]3(C)CC[C@H]4[C@H](C)CC[C@@H]([C@H]1C)[C@@]24OO3 [BTM-2C-dimer allyl oxime] | -6.63 | -7.63 | -7.78 | 97.5 | 96.4 | 100 | 97.7 | 101 | 64.3 | 35.7 | 31.6 | 30 | 23.4 | 9.18 | 90.3 | 100 | 94.2 | 56.3 | 28.8 | 14.6 | 18.5 | 20.9 | 18.3 | 14.7 | 10.9 | 95.8 | 92 | 97.2 | 37.4 | 10.7 | 8.51 | 8.58 | 8.23 | 9.68 | 8.79 | 7.1 |
| C[C@H]1[C@@H](C(=O)C[C@H]2O[C@@H]3O[C@]4(C)CC[C@H]5[C@H](C)CC[C@@H]([C@H]2C)[C@@]35OO4)O[C@@H]2O[C@]3(C)CC[C@H]4[C@H](C)CC[C@@H]1[C@@]24OO3 [BTM-2C-dimer ketone] | -6.68 | -7.58 | -7.58 | 96.3 | 96.2 | 98.5 | 92.3 | 98.5 | 67.6 | 51.4 | 45.3 | 44.7 | 39.7 | 39.3 | 84.2 | 91.4 | 89.9 | 53.5 | 36.2 | 16.3 | 18.3 | 17.8 | 15.8 | 22.2 | 12.9 | 93.2 | 99.2 | 95 | 64.2 | 21.8 | 10.8 | 10.1 | 10.2 | 12 | 11.6 | 8.38 |
| O=C(OC)[C@]12CC[C@@]3(C)[C@]4(C)CC[C@H]5[C@@](C)(C)C(=O)C(=C[C@]5(C)C4=CC(=O)[C@@H]3[C@@H]2C[C@](C)(C)CC1)C#N [Bardoxolone methyl] | -6.08 | -6.33 | -6.28 | 99.9 | 101 | 105 | 103 | 103 | 95.6 | 68.6 | 25.7 | 5.55 | 1.31 | -0.702 | 115 | 106 | 111 | 114 | 68.8 | 103 | 43.7 | 4.61 | 1.93 | 0.135 | -0.46 | 113 | 114 | 114 | 112 | 111 | 103 | 54.5 | 4.6 | 2.58 | 0.897 | 0.0452 |
| O=C(/C=C/c1cccc(S(=O)(=O)Nc2ccccc2)c1)NO [Belinostat] | -6.08 | -7.48 | -6.58 | 98 | 97.2 | 102 | 90.3 | 91 | 76.8 | 58.8 | 50 | 30.8 | 24.8 | 16.9 | 106 | 113 | 100 | 77.6 | 22.6 | 1.51 | -0.676 | -1.31 | -1.47 | -1.41 | -1.53 | 96.9 | 97.5 | 114 | 112 | 98.3 | 66.9 | 24.2 | 6.32 | 4.85 | 3.72 | 2.46 |
